According to article PMC4336329 (PLoS ONE, 2015):
Screen size: about 310,000 compounds; about 2,200 (0.71%) showed an effect of 50% or more. The effect is printed as a negative number. The list shows a part of the results.

Each compound was assayed against human ether-à-go-go-related gene (hERG) potassium channel (human, UniProt Q12809) (assay: primary screen, population patch clamp on CHO cells stably expressing hERG).
Sequence of human ether-à-go-go-related gene (hERG) potassium channel (Q12809 whole entry, looked up): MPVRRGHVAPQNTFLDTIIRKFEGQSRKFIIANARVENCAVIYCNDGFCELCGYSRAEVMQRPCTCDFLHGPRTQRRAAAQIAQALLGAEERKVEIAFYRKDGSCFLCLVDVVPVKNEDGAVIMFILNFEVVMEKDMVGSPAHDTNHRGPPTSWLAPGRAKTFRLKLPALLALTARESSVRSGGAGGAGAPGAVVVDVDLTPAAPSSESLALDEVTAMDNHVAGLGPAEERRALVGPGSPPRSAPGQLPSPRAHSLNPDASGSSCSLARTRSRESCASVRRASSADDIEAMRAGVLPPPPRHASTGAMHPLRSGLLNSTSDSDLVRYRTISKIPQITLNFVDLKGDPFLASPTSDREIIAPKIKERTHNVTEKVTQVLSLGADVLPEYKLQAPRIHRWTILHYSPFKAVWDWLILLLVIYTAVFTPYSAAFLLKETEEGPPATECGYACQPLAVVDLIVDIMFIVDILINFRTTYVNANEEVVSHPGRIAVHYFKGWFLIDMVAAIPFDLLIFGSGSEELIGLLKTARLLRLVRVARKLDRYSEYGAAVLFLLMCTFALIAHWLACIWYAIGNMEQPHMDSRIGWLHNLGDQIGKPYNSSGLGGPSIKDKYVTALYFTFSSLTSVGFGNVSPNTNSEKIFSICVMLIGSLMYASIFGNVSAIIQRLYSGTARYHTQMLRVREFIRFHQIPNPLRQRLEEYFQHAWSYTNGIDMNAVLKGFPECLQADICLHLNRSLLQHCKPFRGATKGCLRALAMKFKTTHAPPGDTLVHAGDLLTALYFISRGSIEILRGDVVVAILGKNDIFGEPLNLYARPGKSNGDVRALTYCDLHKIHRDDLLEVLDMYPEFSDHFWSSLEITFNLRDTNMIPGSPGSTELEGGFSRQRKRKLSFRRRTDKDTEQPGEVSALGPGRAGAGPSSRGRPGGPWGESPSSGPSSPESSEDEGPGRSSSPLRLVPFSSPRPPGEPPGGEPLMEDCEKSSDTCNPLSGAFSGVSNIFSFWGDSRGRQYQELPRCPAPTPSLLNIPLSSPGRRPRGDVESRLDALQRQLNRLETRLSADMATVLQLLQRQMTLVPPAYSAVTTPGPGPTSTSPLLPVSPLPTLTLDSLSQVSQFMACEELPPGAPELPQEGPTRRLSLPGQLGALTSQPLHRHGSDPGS

SMILES	hERG current change (%, negative = inhibition) at 1uM [%]
CC(=O)NCCCc1c[nH]c2ccc(Cl)cc12	14.7
COc1cccc(/C=N/NC(=O)CCC(=O)Nc2ccc(Br)cc2)c1	13.5
CC1(C)OC(=O)N(CC(=O)Nc2ccccc2)C1(C)O (centres unmarked)	18.6
Cc1cccn2c(=O)nc(SCC(=O)NCc3ccco3)nc12	4.54
Cc1sc2nc(SCc3nc(-c4cccs4)no3)n(-c3ccccc3)c(=O)c2c1C	19.3
CC(=O)c1cccc(OCc2cc(C(=O)NCCC3=CCCCC3)no2)c1	11.2
C=CCNc1nc2c(c(=O)n(C)c(=O)n2C)n1CCCCCC	-3.73
COc1cccc(-n2c(-c3ccc4[nH]c(C)c(C)c4c3)n[nH]c2=S)c1	5.45
CCOc1ccc(NS(=O)(=O)c2cc(OC)ccc2OC)cc1	2.98
Cc1ccc(SCC(=O)Nc2ccccc2N2CCOCC2)cc1	3.63
CCOC(=O)c1c(C)n(C)c2cc(Br)c(OC)cc12	14.4
CCc1ccc(NC(=O)Nc2ccncc2)cc1	-3.38
CN(CCc1ccccn1)C(=O)c1ccc(OC(F)(F)F)cc1.Cl	3.84
Cc1ccc(N(CCC(=O)O)S(=O)(=O)c2cccc(C(F)(F)F)c2)cc1	7.86
Cc1nnc(N2C(=O)C(O)=C(C(=O)c3ccco3)C2c2ccc(C(C)(C)C)cc2)s1 (centres unmarked)	10.5
CCOC(=O)c1nn(-c2ccc(C)cc2)cc1O	17.4
O=C(O)COc1ccccc1/C=C1\SC(=S)N(NC(=O)c2ccccc2O)C1=O	7.81
CN(C)C(=O)c1ccc2c(c1[N+](=O)[O-])C(=O)c1ccccc1C2=O	14.6
CCc1ccc(S(=O)(=O)NC2CC(C)(C)NC(C)(C)C2)cc1	5.35
Cc1nc2[nH]c(=O)c3c(n2n1)NC1=C(C(=O)CC(C)(C)C1)C3c1ccccc1 (centres unmarked)	-13.8
CC1=C(C(=O)OCC2CCCO2)C(c2ccsc2)C2=C(CC(C)(C)CC2=O)N1 (centres unmarked)	8.65
CCOC(=O)c1ccc(N2C(=O)C3CC=CCC3C2=O)cc1 (centres unmarked)	14.4
CN(C)c1ccc(/C=C(\C#N)C(=O)OCC(=O)N(C)C2CCS(=O)(=O)C2)cc1 (centres unmarked)	11.2

SMILES	hERG current change (%, negative = inhibition) at 1uM [%]
COc1ccc(CNC(=O)CCSCc2ccc(C)cc2)cc1	7.46
Cc1ccc(C)c(S(=O)(=O)Nc2ccc(C(=O)N3CCCCC3)cc2)c1	13.2
CC1=C(C(=O)Nc2ccccc2C)C(c2cccs2)NC(=S)N1 (centres unmarked)	4.18
COc1ccccc1/C=N/NC(=Nc1ccc(C)cc1)c1nc2ccccc2s1	20.5
CC1(C)Cc2ccccc2C(NNC(=O)c2ccccc2)=N1	7.76
O=C1CC2(CCN(C(=O)c3ccccc3F)CC2)Oc2ccccc21	-47.9
CSC1=NCCN1C(=O)c1ccc2c(c1)OCO2	6.88
CC(C)n1nnnc1SCC(=O)NNC(=O)C1CCCCC1	13
Cc1cc(N(CCO)CCO)nc(-n2nc(C)cc2C)n1	6.69
NNC(=O)Cn1c2ccccc2c2ccccc21	-2.26
COC(=O)c1cc(-c2ccc(Cl)cc2)n[nH]1	5.89
CC(Nc1ccnc2cc(Cl)ccc12)c1ccc(S(N)(=O)=O)cc1 (centres unmarked)	-4.25
OCCCc1nc2ccccc2n1CCOc1ccccc1	9.25
Cc1ccsc1/C=C(/C#N)C(=O)NCc1ccccc1	13.8
O=C(NC1CCCCCC1)C1CCN(S(=O)(=O)c2c(Cl)cccc2Cl)CC1	10.9
CCCCC(=O)NC(c1ccc(C(C)C)cc1)c1ccc2cccnc2c1O (centres unmarked)	18.2
Cc1oc(-c2ccccc2Cl)nc1CS(=O)CC(=O)NCCCN1CC(C)CC(C)C1 (centres unmarked)	18.2
Cc1cc(Cl)ccc1OCC(=O)Nc1ccccc1NS(=O)(=O)c1cccs1	8.67
Cc1ccc(N2C(=O)C3CCC(C)(C2=O)C3(C)C)cc1 (centres unmarked)	12.2
CCCOc1ccc(NC(=O)C2CCCNC2=O)cc1 (centres unmarked)	11.2
CC(C)(C)NC(=O)C(=O)NC(=O)c1c(F)cccc1Cl	6.52
O=C(Nc1ccc(OC(F)F)cc1)Nc1cccc(C(F)(F)F)c1	10.7
Cc1ccc(S(=O)(=O)N(C)C)cc1NC(=O)C(C)N(C)Cc1sccc1C (centres unmarked)	2.76

SMILES	hERG current change (%, negative = inhibition) at 1uM [%]
Cc1c(C=O)c2ccccn2c1C(=O)c1ccc(F)cc1	-1.68
Cc1ccnc(NC(=O)C2CCCN(S(=O)(=O)c3cnc[nH]3)C2)c1 (centres unmarked)	4.81
CC1CCC(NC(=O)CNC(=O)c2ccc3ccccc3c2)CC1 (centres unmarked)	21.1
O=C(CN1CCN(Cc2ccc3c(c2)OCO3)CC1)Nc1cc(S(=O)(=O)N2CCCC2)ccc1Cl	0.0396
COc1ccc(OCc2cccc(C(=O)Nn3cc([N+](=O)[O-])cn3)c2)cc1	-8.38
Cc1c(NC(=O)OCCNC(=O)COc2ccc(Cl)cc2Cl)sc(=S)n1C	7.93
Cc1cc(C)c(C#N)c(Nc2ccccc2F)n1	11.5
Cc1ccc(C(=O)OCC(=O)NCC2COc3ccccc3O2)cc1 (centres unmarked)	16.1
CCn1cc(C(=O)O)c(=O)c2cc(F)c(N3CCN(S(=O)(=O)c4ccc(Br)cc4)CC3)cc21	2.28
CC(C)Cc1cc(C(=O)N2CCN(C(c3ccccc3)c3ccccc3)CC2)no1	4.13
Cc1ccc(C)c(OCc2nnc(SCC(=O)NCc3ccc4c(c3)OCO4)o2)c1	6.55
O=C(NCc1ccccc1)c1ccc(=O)oc1	4.23
NC(=O)CSc1oc(-c2ccco2)nc1S(=O)(=O)c1ccc(Cl)cc1	-1.6
COc1ccc(OC)c(/C=N/NC(=O)C(=O)NCc2cccnc2)c1	15.8
O=C(Nc1ccccc1C(F)(F)F)c1cc(-c2ccccc2O)on1	14.3
Cc1ccc(NC(=O)CN(C)S(=O)(=O)c2cccc3cccnc23)cc1F	8.58
CCN1/C(=C2\C(=O)N(c3ccccc3)N=C2C)C=Cc2cc(C)ccc21	-1.41
CC(=O)c1c(CSc2ccccc2)oc2ccc(O)c(CN(C)C)c12.Cl	-8.75
O=c1ccc(C(F)(F)F)cn1Cc1cc(=O)n2ccsc2n1	14.8
COc1ccc(C(=O)NCC(=O)OCC(=O)Nc2c(C)n(C)n(-c3ccccc3)c2=O)cc1	7.05
CC(C)CNC(=O)c1ccccc1NC(=O)Nc1ccccc1	13.6
CCNC(=O)C/C(C)=N/NC(=O)C(=O)Nc1ccc(CC)cc1	8.09
O=C(CN1C(=O)C2CC=CCC2C1=O)Nc1nnc(SCc2c(Cl)cccc2Cl)s1 (centres unmarked)	11.3

SMILES	hERG current change (%, negative = inhibition) at 1uM [%]
O=C(Nc1ccsc1C(=O)O)c1cccc(Oc2ccccc2)c1	8.51
O=C(c1cc(-c2ccccc2Cl)nc2ccccc12)N1CCN(c2ccccc2O)CC1	6.78
CCC(C)NC(=O)CN1C(=O)NC2(CCOc3ccccc32)C1=O (centres unmarked)	1.53
CCC(=O)Nc1ccc2c(c1)nc(CCN1CCN(c3ccccn3)CC1)n2C	4.59
CSC(=CC(=O)c1ccc(F)cc1)SC	5.16
CC(=O)COC(=O)C1CCN(S(=O)(=O)c2cc([N+](=O)[O-])ccc2Cl)CC1	-10.6
COCCNC(=O)CN(c1ccc(OC)c(OC)c1)S(=O)(=O)c1ccc(C)cc1	1.92
CC(=O)C1C(c2ccc(C)cc2)c2c(noc2C)CC1(C)O (centres unmarked)	12.7
Cc1nn(-c2ccccc2)c(C)c1CCC(=O)O	13.3
O=C(O)c1cccc2c1C(=O)N(CC1CCCO1)C2 (centres unmarked)	21.4
COCCCn1c(SCc2nnc(-c3ccc(OC)c(OC)c3)o2)nc2ccccc2c1=O	-2.02
CC(C)[N+](C)(C)CC(O)CN(c1ccccc1)c1ccccc1.[I-] (centres unmarked)	-1.75
O=C(c1cc(-c2ccco2)nn1-c1cccc(Cl)c1)N1CCCCC1	-2.12
Cc1c(C2=CCN(S(=O)(=O)c3ccc(Cl)cc3)CC2)c2ccccc2n1C	22.4
COc1cccc(NC(=O)CSc2nnc(-c3cccs3)n2C)c1	7.61
CCOCCCNC(=O)C(c1ccc(C)cc1)N(Cc1ccc2c(c1)OCO2)C(=O)c1cnccn1 (centres unmarked)	12.7
COc1cc2c(cc1OC)CN(C(=O)C1CCN(S(=O)(=O)c3ccccc3F)CC1)CC2	8.26
Cc1cc(C)n(-c2ccc(C(=O)OCC(=O)N(CC(C)C)C3CCS(=O)(=O)C3)cc2)n1 (centres unmarked)	10.9
CCN(C(=O)COC(=O)CNC(=O)c1ccc(C)c(C)c1)C1CCS(=O)(=O)C1 (centres unmarked)	-0.46
Cc1ccc(C)c(OCCCN2CCc3ccccc3C2)c1.Cl	9.39
